Laboratory results published in the RNAGym collection of RNA variant scans (doi:10.1073/pnas.2313332121).
This sample is rich in variants without activity.

B1: TPR 5TU (parent)
chain: GGAUCUUCUCGAUCUAACAAAAAAGACAAAUCUGCCACAAAGCUUGAGAGCAUCUUCGGAUGCAGAGGCGGCAGCCUUCGGUGGCGCGAUAGCGCCAACGUUCUCAACUAUGACACGCAAAACGCGUGCUCCGUUGAAUGGAGUUUAUCAUG

Variants of: B1
Experiment: polymerase ribozyme fitness, log enrichment relative to wild type (log ratio); higher = more active; in vitro selection for triplet polymerase activity
Procedure, shortened: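 Libraries of mutants in each subunit of a heterodimeric triplet polymerase ribozyme were generated by PCR and transcribed. In triplicate, each went through one in vitro selection round: annealing with biotinylated primer, partner subunit and triplets; frozen incubation at −7 °C; gel excision of extended constructs; streptavidin-bead capture; RT-PCR. Fitness, taken from Illumina sequencing of input and output libraries, is the logarithm of a genotype's enrichment over wild-type enrichment, averaged across replicates with inverse-variance weights. The logarithm is base 2, and genotypes needed ≥10 input reads and ≥1 read per output to be kept.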

**Q.** For C43U U53G C79G G94A A115C U130A, which “polymerase ribozyme fitness (log ratio)” value is on record?
**A.** ≤ -4.2

**Q.** For C43U U55C C93A, which “polymerase ribozyme fitness (log ratio)” value is on record?
**A.** ≤ -4.2

**Q.** With C43U U55G G68C G88A as the variant, how does the “polymerase ribozyme fitness (log ratio)” value read?
**A.** ≤ -4.2

**Q.** For C43U U56A C87U U109G, which “polymerase ribozyme fitness (log ratio)” value is on record?
**A.** ≤ -4.2

**Q.** With C43U U61A as the variant, how does the “polymerase ribozyme fitness (log ratio)” value read?
**A.** ≤ -4.2

**Q.** For C43U U61G G94U C116U U144G C149G, which “polymerase ribozyme fitness (log ratio)” value is on record?
**A.** ≤ -4.2

**Q.** With C43U U78A C85A A115C as the variant, how does the “polymerase ribozyme fitness (log ratio)” value read?
**A.** ≤ -4.2

**Q.** Which “polymerase ribozyme fitness (log ratio)” value does the source give for C43U U82A C103A A150U here?
**A.** ≤ -4.2

**Q.** For C43U U82G U101G, which “polymerase ribozyme fitness (log ratio)” value is on record?
**A.** -4.04

**Q.** Which “polymerase ribozyme fitness (log ratio)” value does the source give for C43U U90C C93U C125G here?
**A.** ≤ -4.2

**Q.** Which “polymerase ribozyme fitness (log ratio)” value does the source give for U44A A47C C54A U78A C87G here?
**A.** ≤ -4.2

**Q.** For U44A A47C G84A, which “polymerase ribozyme fitness (log ratio)” value is on record?
**A.** ≤ -4.2

**Q.** With U44A A47C G88C as the variant, how does the “polymerase ribozyme fitness (log ratio)” value read?
**A.** ≤ -4.2

**Q.** With U44A A49G A97G U101G as the variant, how does the “polymerase ribozyme fitness (log ratio)” value read?
**A.** ≤ -4.2

**Q.** Which “polymerase ribozyme fitness (log ratio)” value does the source give for U44A A52C here?
**A.** -3.94

**Q.** Which “polymerase ribozyme fitness (log ratio)” value does the source give for U44A A52G A91G here?
**A.** ≤ -4.2

**Q.** Which “polymerase ribozyme fitness (log ratio)” value does the source give for U44A A52G C85A C118U here?
**A.** ≤ -4.2

**Q.** With U44A A52U C76G G83C C96U C99U as the variant, how does the “polymerase ribozyme fitness (log ratio)” value read?
**A.** ≤ -4.2

**Q.** Which “polymerase ribozyme fitness (log ratio)” value does the source give for U44A A64G C72G G80C C96U U104C A122G U146A here?
**A.** ≤ -4.2

**Q.** With U44A A66C U102C G143U as the variant, how does the “polymerase ribozyme fitness (log ratio)” value read?
**A.** ≤ -4.2

**Q.** With U44A A98U U102C A113G U146A as the variant, how does the “polymerase ribozyme fitness (log ratio)” value read?
**A.** ≤ -4.2

**Q.** With U44A A115G as the variant, how does the “polymerase ribozyme fitness (log ratio)” value read?
**A.** ≤ -4.2

**Q.** Which “polymerase ribozyme fitness (log ratio)” value does the source give for U44A C51A C57U A60G A89U G92U A147G here?
**A.** ≤ -4.2

**Q.** With U44A C51G C57A G84C C105G C118G G141A C149A G152U as the variant, how does the “polymerase ribozyme fitness (log ratio)” value read?
**A.** ≤ -4.2

**Q.** With U44A C51G C75U C85G U127G A142G as the variant, how does the “polymerase ribozyme fitness (log ratio)” value read?
**A.** ≤ -4.2

**Q.** For U44A C51G U90G C116G G133A U135G G141U, which “polymerase ribozyme fitness (log ratio)” value is on record?
**A.** ≤ -4.2

**Q.** Which “polymerase ribozyme fitness (log ratio)” value does the source give for U44A C51U here?
**A.** ≤ -4.2

**Q.** Which “polymerase ribozyme fitness (log ratio)” value does the source give for U44A C54A C75G G92U U145C here?
**A.** ≤ -4.2

**Q.** With U44A C54G C87U A91U C103G C129A G152U as the variant, how does the “polymerase ribozyme fitness (log ratio)” value read?
**A.** ≤ -4.2

**Q.** Which “polymerase ribozyme fitness (log ratio)” value does the source give for U44A C54U A60U U61G G71A C103G here?
**A.** ≤ -4.2

**Q.** With U44A C54U C57U G88A A91U C96U A115C as the variant, how does the “polymerase ribozyme fitness (log ratio)” value read?
**A.** ≤ -4.2

**Q.** For U44A C54U U61A C99G, which “polymerase ribozyme fitness (log ratio)” value is on record?
**A.** ≤ -4.2

**Q.** With U44A C54U U82G C87A C123U as the variant, how does the “polymerase ribozyme fitness (log ratio)” value read?
**A.** ≤ -4.2

**Q.** For U44A C57G A107C U135C, which “polymerase ribozyme fitness (log ratio)” value is on record?
**A.** ≤ -4.2

**Q.** Which “polymerase ribozyme fitness (log ratio)” value does the source give for U44A C57U G80C G81A G94U here?
**A.** ≤ -4.2

**Q.** With U44A C63G C87U as the variant, how does the “polymerase ribozyme fitness (log ratio)” value read?
**A.** ≤ -4.2

**Q.** Which “polymerase ribozyme fitness (log ratio)” value does the source give for U44A C69A G92A C93G U145G here?
**A.** ≤ -4.2

**Q.** For U44A C72A U82G C93G A142G, which “polymerase ribozyme fitness (log ratio)” value is on record?
**A.** ≤ -4.2

**Q.** With U44A C76A G80U C93G as the variant, how does the “polymerase ribozyme fitness (log ratio)” value read?
**A.** ≤ -4.2

**Q.** With U44A C79U A89G U104A A107G as the variant, how does the “polymerase ribozyme fitness (log ratio)” value read?
**A.** ≤ -4.2

**Q.** With U44A C85A A121G U135G A150C as the variant, how does the “polymerase ribozyme fitness (log ratio)” value read?
**A.** ≤ -4.2

**Q.** Which “polymerase ribozyme fitness (log ratio)” value does the source give for U44A C85A A142C here?
**A.** ≤ -4.2

**Q.** With U44A C85G C103A U104C C131U as the variant, how does the “polymerase ribozyme fitness (log ratio)” value read?
**A.** ≤ -4.2

**Q.** With U44A C85G C105U U139A as the variant, how does the “polymerase ribozyme fitness (log ratio)” value read?
**A.** ≤ -4.2

**Q.** For U44A C87G C105G G126U A142C, which “polymerase ribozyme fitness (log ratio)” value is on record?
**A.** ≤ -4.2

**Q.** Which “polymerase ribozyme fitness (log ratio)” value does the source give for U44A C87G C132G here?
**A.** ≤ -4.2

**Q.** With U44A C93A as the variant, how does the “polymerase ribozyme fitness (log ratio)” value read?
**A.** ≤ -4.2

**Q.** For U44A C93G, which “polymerase ribozyme fitness (log ratio)” value is on record?
**A.** ≤ -4.2

**Q.** For U44A C93U, which “polymerase ribozyme fitness (log ratio)” value is on record?
**A.** ≤ -4.2

**Q.** With U44A C95U C96G A120C as the variant, how does the “polymerase ribozyme fitness (log ratio)” value read?
**A.** ≤ -4.2

**Q.** With U44A C116G as the variant, how does the “polymerase ribozyme fitness (log ratio)” value read?
**A.** -4.19

**Q.** With U44A G46C C87U as the variant, how does the “polymerase ribozyme fitness (log ratio)” value read?
**A.** ≤ -4.2

**Q.** Which “polymerase ribozyme fitness (log ratio)” value does the source give for U44A G48C G62A A66C G68U G70A C87A A91C here?
**A.** ≤ -4.2

**Q.** Which “polymerase ribozyme fitness (log ratio)” value does the source give for U44A G50A A60C A73G C76U C96A G143C U146A here?
**A.** ≤ -4.2

**Q.** With U44A G50A A89U G136U as the variant, how does the “polymerase ribozyme fitness (log ratio)” value read?
**A.** ≤ -4.2

**Q.** With U44A G50A C57U C72U G92A G141U G143U A150G as the variant, how does the “polymerase ribozyme fitness (log ratio)” value read?
**A.** ≤ -4.2

**Q.** With U44A G50C G84U G88A U139C G152A as the variant, how does the “polymerase ribozyme fitness (log ratio)” value read?
**A.** ≤ -4.2

**Q.** With U44A G50C G84U G88A U139C G152U as the variant, how does the “polymerase ribozyme fitness (log ratio)” value read?
**A.** ≤ -4.2

**Q.** With U44A G50C G94A A142C as the variant, how does the “polymerase ribozyme fitness (log ratio)” value read?
**A.** ≤ -4.2

**Q.** With U44A G50C G94C G126U as the variant, how does the “polymerase ribozyme fitness (log ratio)” value read?
**A.** ≤ -4.2

**Q.** Which “polymerase ribozyme fitness (log ratio)” value does the source give for U44A G50U G92C C103G C125A here?
**A.** ≤ -4.2

**Q.** For U44A G59C A60U U146A, which “polymerase ribozyme fitness (log ratio)” value is on record?
**A.** ≤ -4.2

**Q.** Which “polymerase ribozyme fitness (log ratio)” value does the source give for U44A G62U C63A A66G G83U A91G C108G G112U here?
**A.** ≤ -4.2

**Q.** For U44A G67A U77G U78G C87A C95G, which “polymerase ribozyme fitness (log ratio)” value is on record?
**A.** ≤ -4.2

**Q.** Which “polymerase ribozyme fitness (log ratio)” value does the source give for U44A G68C C103U here?
**A.** ≤ -4.2

**Q.** With U44A G80C C87G as the variant, how does the “polymerase ribozyme fitness (log ratio)” value read?
**A.** ≤ -4.2

**Q.** For U44A G80C G92A G100C G141A, which “polymerase ribozyme fitness (log ratio)” value is on record?
**A.** ≤ -4.2

**Q.** With U44A G81A A137G as the variant, how does the “polymerase ribozyme fitness (log ratio)” value read?
**A.** ≤ -4.2

**Q.** Which “polymerase ribozyme fitness (log ratio)” value does the source give for U44A G81C A98U G141C A147C here?
**A.** ≤ -4.2

**Q.** Which “polymerase ribozyme fitness (log ratio)” value does the source give for U44A G84A C85G C95G C99U here?
**A.** -3.94

**Q.** Which “polymerase ribozyme fitness (log ratio)” value does the source give for U44A G88A C118U G141U U146C A150G here?
**A.** ≤ -4.2

**Q.** With U44A G88C A91U C118A as the variant, how does the “polymerase ribozyme fitness (log ratio)” value read?
**A.** ≤ -4.2

**Q.** With U44A G92A as the variant, how does the “polymerase ribozyme fitness (log ratio)” value read?
**A.** ≤ -4.2

**Q.** For U44A G92A A115U C118U, which “polymerase ribozyme fitness (log ratio)” value is on record?
**A.** ≤ -4.2

**Q.** For U44A G92A C105G C118G A142G, which “polymerase ribozyme fitness (log ratio)” value is on record?
**A.** ≤ -4.2

**Q.** Which “polymerase ribozyme fitness (log ratio)” value does the source give for U44A G92A G94C C123A G133U U139C U146G here?
**A.** ≤ -4.2

**Q.** Which “polymerase ribozyme fitness (log ratio)” value does the source give for U44A G117A U135G here?
**A.** ≤ -4.2

**Q.** With U44A U45A C93G as the variant, how does the “polymerase ribozyme fitness (log ratio)” value read?
**A.** ≤ -4.2

**Q.** For U44A U53A C85G G88C C118A, which “polymerase ribozyme fitness (log ratio)” value is on record?
**A.** ≤ -4.2

**Q.** For U44A U53A G68A, which “polymerase ribozyme fitness (log ratio)” value is on record?
**A.** ≤ -4.2

**Q.** With U44A U53A G74A C87U as the variant, how does the “polymerase ribozyme fitness (log ratio)” value read?
**A.** ≤ -4.2

**Q.** With U44A U53A G81A C87A A106C as the variant, how does the “polymerase ribozyme fitness (log ratio)” value read?
**A.** ≤ -4.2

**Q.** For U44A U53A U55A U56A G92U A121C, which “polymerase ribozyme fitness (log ratio)” value is on record?
**A.** ≤ -4.2
